According to the supplement of paper PMC11417369:
± gives the standard deviation of the averaged measurements. This is one part of the list.

tested on: PfAP2-LT AP2 domain (GST-tagged); assay: gcPBM binding intensity (ln(normalized median fluorescence intensity)); higher = stronger DNA binding
Procedure, shortened: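 In this array assay, P. falciparum DNA-binding domains with a GST tag, expressed in E. coli, were applied for 1 h to primer-extended double-stranded 36-bp intergenic genomic probes and negative controls on an Agilent 4 × 180k array. Bound protein was visualised with Alexa488 anti-GST antibody at 488 nm. Binding intensity is the highest Masliner-normalised natural-log median intensity across replicate spots of either probe orientation.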

Row | Sequence | gcPBM binding intensity (ln)
1 | AAAACATAAATACATACACACATAATATATATTAAT [CACACA_site109] | 9.32 ± 0.38
2 | ATTATAATATTGTTATGTACATAAAAATTATTGAAT [XGTACX_site4476] | 8.81 ± 0.35
3 | AAAAAATAATAAATCACACATATTATATATATATAT [CACACA_site5838] | 8.94 ± 0.25
4 | AACATGAAAGATAGCAAAAAAAAAAAAAAAAAAAAA [TGCATGCA_negctrl_site607] | 8.37 ± 0.3
5 | TTGAAGTGTACTATTTTATATATATATATACATTTT [CACACA_negctrl_site224] | 9.1 ± 0.48
6 | TAGAAATATATTTATTGTACATTGTATATATTATAT [XGTACX_site7584] | 8.64 ± 0.38
7 | TAATGTTCCTATATAGTGCAATTATGTTTTATTTCT | 8.88 ± 0.45
8 | TACGATGTTTTAAAATGTACATAAAAGTCACATAAG [XGTACX_site3297] | 8.54 ± 0.45
9 | TTTTAATTTTTAAGACGTACTATCATTTGATAATAA [XGTACX_site3942] | 8.26 ± 0.47
10 | ATTATGTGCCAATACACACACACATCTATATTTATA [CACACA_site6359] | 9.67 ± 0.18
11 | TCTTTTTTTTTTACTAGTACTTAAAAAAAAAATATG [XGTACX_site4395] | 8.28 ± 0.55
12 | TATTTATAAATATACGCACACATTAATATATATATA [CACACA_site3969] | 8.98 ± 0.42
13 | AGTATGTAAATGTGCCATATATATATTAAATACATA [CACACA_negctrl_site14] | 8.86 ± 0.42
14 | GTTGGTAGGCGGTACGGTACACGTAGTATTTTTCTT [XGTACX_site4213] | 8.95 ± 0.49
15 | ATATTATTTATTTTTAAATTATATTGATTATTTTTT [CACACA_negctrl_site451] | 8.44 ± 0.63
16 | TTTTTTTCATATATATGTACATAATTATATATGCAT [XGTACX_site3257] | 8.9 ± 0.45
17 | TTTAAAAATATTTCACGTACGCATTTTAAAAAGTAT [XGTACX_site8026] | 8.52 ± 0.39
18 | AAATAGTAAGAGATGGTGCGTTTCCTTTTTTTTTTT [GTGCAC_site9663] | 8.82 ± 0.4
19 | CGTGGGAGCAGACACACACACACACCCATATATATA [CACACA_site334] | 9.99 ± 0.5
20 | TTAATTATATGGTAAACAAATAAATGTGAAAGGAAA [XGTACX_negctrl_site389] | 8.75 ± 0.45
21 | TATATACGCATGCGCACACACAAGTGGGAAATTTGG [CACACA_site1785] | 9.45 ± 0.44
22 | TTATTATATAAATAAAAAAAAAAAAAAAAAAAAAAA [CACACA_negctrl_site1455] | 8.2 ± 0.35
23 | ATATTTATATGAATCACACACAAAAAATATAGAGAT [CACACA_site7775] | 9.24 ± 0.4

Row | Sequence | gcPBM binding intensity (ln)
24 | ACTGTGGGAATAACCACACACACACCCACATATATA [CACACA_site3542] | 9.67 ± 0.26
25 | AATATGTTTTTTAGATGTACAGATTAAATATTAAAA [XGTACX_site7308] | 8.25 ± 0.57
26 | CATAAATACAAATATACACACATATATATATATATA [CACACA_site2633] | 9.87 ± 0.34
27 | AAATCACAAAAAAAAAAAAAAATATATATATATATA [CACACA_negctrl_site10] | 9.48 ± 0.071
28 | AAATTTAAAAATAAAGAACACACATATGTAAAATAT [CACACA_site9252] | 8.98 ± 0.45
29 | AATTTCAATTTCTGTTGTACACTTTTTAATAGTAAA [XGTACX_site4085] | 8.68 ± 0.42
30 | AAAAAAAAAAAAAAAACACACAAACATCAAATTACT [CACACA_site6950] | 8.98 ± 0.39
31 | TAAATGAAAATATGTACACACTTGAAAATTTTTATG [CACACA_site5599] | 8.86 ± 0.33
32 | TATATTATATATATATGTACATATTATTATATCTAA [XGTACX_site3835] | 8.67 ± 0.44
33 | TTTTGTATTTTTCACACACACATAAGTAAACAATAA [CACACA_site1899] | 9.21 ± 0.47
34 | TACAAGAACAAAAAATGTACGAAATAATTACAAATA [XGTACX_site5824] | 8.84 ± 0.56
35 | AATCTTTTTAAATCTTGATTAATTTCGGGTATATAT [TGCATGCA_negctrl_site107] | 8.57 ± 0.42
36 | ATGTTGTGGATATATACACACATACATATTTATATA [CACACA_site6857] | 8.97 ± 0.38
37 | AAACATATGGTATTTAAACACACAAAAAAGAAAGAA [CACACA_site8239] | 9.22 ± 0.54
38 | ATACAATAATATAAATGTACAAATTATATCTTCATT [XGTACX_site8994] | 8.79 ± 0.4
39 | AAATTAAATATTATATTAATTCTTAAATTTTTTTTT [CACACA_negctrl_site439] | 7.9 ± 0.48
40 | TAGCATGATTTGCCTTGTACACAACCGTTTTAATAA [XGTACX_site7911] | 8.73 ± 0.43
41 | AAGTGTTCTTGTTATACACACACATATATATATATA [CACACA_site8251] | 9.45 ± 0.099
42 | TATGATAAATATGGAGCACACACACCGAAACATACA [CACACA_site8031] | 9.73 ± 0.25
43 | TATTATATATAATATTGTACATTAAAATATTAAAGA [XGTACX_site3698] | 8.41 ± 0.39
44 | TTTATTTTAAAATATAGTACGCAAATAAAAATAAAT [XGTACX_site7783] | 8.63 ± 0.48
45 | GGAACGTTCATATTTCCACACACAAAAAATAAATAT [CACACA_site9101] | 9.31 ± 0.57
46 | ATATGTATTAAGTGTACACATATAATGGGTTTTCTT [CACACA_site5328] | 8.96 ± 0.38

Row | Sequence | gcPBM binding intensity (ln)
47 | GAAAAAAAAATACATACACACAATATATTTATTTAT [CACACA_site3124] | 8.96 ± 0.43
48 | TAATTATATAAATACACACACATACACCCAAATAAA [CACACA_site5819] | 9.8 ± 0.2
49 | TATATACTATATATATGTACACAAAATTATTTTGAA [XGTACX_site8232] | 8.53 ± 0.38
50 | ATATGTAGTGTTATTTGTTCATTGTTTTAATTTTTA [CACACA_negctrl_site1394] | 8.87 ± 0.38
51 | ATGTATATTTTTATGTGTACGTAATAAAACATAATA [XGTACX_site7777] | 8.83 ± 0.41
52 | TTATTTTTTTTTAGAGCACACATTTTTAATAAGGTA [CACACA_site2133] | 8.57 ± 0.47
53 | AATATGGGCATACATGTGCACTTTTTCCCGTGGTTT | 9.02 ± 0.45
54 | ACGAAAAGATATATATGTACATATATTAAAAAAAAA [XGTACX_site1517] | 8.78 ± 0.45
55 | TTAATTAAATATAGGGGTACATATTATATATGTTTT [XGTACX_site3677] | 8.91 ± 0.39
56 | AAATATTTCTGCAAGGTGCACTTTATAAATCTTTGA | 8.71 ± 0.41
57 | AAGAAATTTATTTATTGTACAATATATAATTTGTTT [XGTACX_site2478] | 8.61 ± 0.4
58 | TTATATGCATATTTTTGTACACAACATTGTTGTATA [XGTACX_site8707] | 8.93 ± 0.37
59 | TTTTGTTAACATATAGAAAAGAACAAAGTTAAAAAG [XGTACX_negctrl_site462] | 8.64 ± 0.54
60 | TTCGTATGCATGAAATGTACATGATATTATTATAAA [XGTACX_site4542] | 8.67 ± 0.37
61 | TATAAATTTGTTCAATGTACATGTAAAGATATAATC [XGTACX_site371] | 8.86 ± 0.44
62 | ACCAATCCAAAAGAATGTACCCATGTTTTAAAATAT [XGTACX_site2907] | 8.79 ± 0.39
63 | TGAAGCAAAAACAAAACACACATATAAATAAATAAA [CACACA_site3925] | 9.15 ± 0.52
64 | TTATTTTTTATAAAATGTACATATATTTTAAATATA [XGTACX_site4026] | 8.27 ± 0.47
65 | ATCTTAGTTGAAATATAGAATTTATAATAAAAGTTA [GTGCAC_negctrl_site122] | 8.3 ± 0.38
66 | TATGTATAAAAATAATGTACAAAATATATTATATGT [XGTACX_site2794] | 8.84 ± 0.4
67 | ATACTATAATAATACACACTCATTAGATATATAAAG [CACACA_site7787] | 8.88 ± 0.47
68 | AAAAAACAAAAAAATACACACATAAAAAGGTTTTAG [CACACA_site3584] | 9.02 ± 0.51
69 | TTATAAGATGATTATAAAATCAAATTCATTCTTTTA [CACACA_negctrl_site1338] | 8.13 ± 0.49

Row | Sequence | gcPBM binding intensity (ln)
70 | AAATATGTCAAATATACACACATAATAAATATAATA [CACACA_site2310] | 9.13 ± 0.49
71 | TAAACATAACAAAGGAGTACAAAACTTGATCAGTTC [XGTACX_site3114] | 8.98 ± 0.52
72 | TGTACAAATATGTACACACACACATATTTATTTATA [CACACA_site6419] | 9.48 ± 0.3
73 | ATATTTTATTTTTAAAGTACAAAAGAAAAGAATAAT [XGTACX_site8247] | 8.48 ± 0.49
74 | GATTTACATTTTGATGAAAATAATAAAATGTGGAAA [TGCATGCA_negctrl_site409] | 8.51 ± 0.46
75 | AAAAAAAAAGACAAAAGTACAAAGGTTCATAATTTA [XGTACX_site3978] | 8.76 ± 0.57
76 | AACATCAAAATATGCACACAAACAATTAGCGGTAGT [CACACA_site2521] | 9.44 ± 0.38
77 | GAAATGGGTAAACATACACACACACCGATATATATA [CACACA_site8610] | 9.87 ± 0.23
78 | AAAAATTTCTATTTTTGTACTTACTTTTTAGTAATA [XGTACX_site5236] | 8.41 ± 0.47
79 | TAACAATTATGCTGGTGTACGTTTGAAATTGGGTAT [XGTACX_site6846] | 8.89 ± 0.4
80 | TACACAAGAAAATTCACACACACACCGATATATATA [CACACA_site6008] | 9.87 ± 0.16
81 | AAATCTTCATAATAAAGTACTTAACTCTTGGTGTTA [XGTACX_site6112] | 8.52 ± 0.42
82 | CTTATATTTGGACACACACACAATAAAATGAAAAAA [CACACA_site6614] | 9.47 ± 0.37
83 | AAAAAAAAAAAAAAAACATGCAGTTAGTGGTTTTTT [TGCATGCA_site243] | 8.82 ± 0.4
84 | AATAAATGGAAAAGGTGTACACAAAAAAAAGGGAAA [XGTACX_site4956] | 9.36 ± 0.8
85 | TATGAACTTTTGGGGGTGCCTTAAAATGTATATTCT | 8.97 ± 0.23
86 | ATATATATATAAAGCAGTACACACATTTATTTTAGA [XGTACX_site7226] | 9.03 ± 0.35
87 | TCCCAATTTATTATGTGTACTTATTATATACATATA [XGTACX_site4033] | 8.79 ± 0.45
88 | TATCAAAGTAGAAGAGATCGATGTCATATTGTGATG [GTGCAC_negctrl_site42] | 9.01 ± 0.4
89 | ATATTCTAAATAAAGGGTACACAAAAATAATTAAAG [XGTACX_site5529] | 8.78 ± 0.45
